# Hit rate of the full screen: of about 310,000 compounds, about 2,200 (0.71%) showed an effect of 50% or more. Effects have a minus sign here. This is one part of the list.
# Biological target: human ether-à-go-go-related gene (hERG) potassium channel (human, UniProt Q12809)
# Test: primary screen, population patch clamp on CHO cells stably expressing hERG
# Sequence of human ether-à-go-go-related gene (hERG) potassium channel (Q12809 whole entry, looked up): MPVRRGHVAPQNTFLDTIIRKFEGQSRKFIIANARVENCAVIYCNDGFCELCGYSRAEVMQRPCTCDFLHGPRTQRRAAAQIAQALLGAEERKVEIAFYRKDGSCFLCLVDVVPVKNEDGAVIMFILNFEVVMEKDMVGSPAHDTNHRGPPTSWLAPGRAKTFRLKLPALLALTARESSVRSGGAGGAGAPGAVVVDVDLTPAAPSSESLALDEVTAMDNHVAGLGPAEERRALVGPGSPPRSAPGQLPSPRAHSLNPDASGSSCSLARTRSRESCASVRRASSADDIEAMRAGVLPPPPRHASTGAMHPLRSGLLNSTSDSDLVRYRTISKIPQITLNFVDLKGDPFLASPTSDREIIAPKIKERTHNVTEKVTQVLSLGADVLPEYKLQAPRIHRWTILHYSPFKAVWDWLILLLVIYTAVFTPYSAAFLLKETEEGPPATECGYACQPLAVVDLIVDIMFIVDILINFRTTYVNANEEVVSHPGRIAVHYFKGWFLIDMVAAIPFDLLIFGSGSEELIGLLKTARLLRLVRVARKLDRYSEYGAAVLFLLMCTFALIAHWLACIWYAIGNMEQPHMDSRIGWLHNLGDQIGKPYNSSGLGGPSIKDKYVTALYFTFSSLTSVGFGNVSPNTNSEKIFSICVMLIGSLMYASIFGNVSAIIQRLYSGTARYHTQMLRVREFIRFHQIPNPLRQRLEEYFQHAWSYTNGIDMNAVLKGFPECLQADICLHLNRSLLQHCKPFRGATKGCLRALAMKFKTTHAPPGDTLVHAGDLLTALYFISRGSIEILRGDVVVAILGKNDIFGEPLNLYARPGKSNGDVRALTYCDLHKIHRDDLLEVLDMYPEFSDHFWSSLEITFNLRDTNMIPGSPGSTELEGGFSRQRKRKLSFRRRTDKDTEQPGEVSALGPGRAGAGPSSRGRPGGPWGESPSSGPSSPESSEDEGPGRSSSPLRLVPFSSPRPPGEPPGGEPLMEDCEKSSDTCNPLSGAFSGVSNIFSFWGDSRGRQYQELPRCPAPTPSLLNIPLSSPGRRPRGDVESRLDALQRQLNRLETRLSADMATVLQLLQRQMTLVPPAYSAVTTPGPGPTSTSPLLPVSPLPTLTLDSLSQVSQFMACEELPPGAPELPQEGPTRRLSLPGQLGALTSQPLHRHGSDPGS
row,Structure (SMILES),"hERG current change (%, negative = inhibition) at 1uM"
1,COC(=O)C1=C(C)N(Cc2cccnc2)C(=O)C1,-1.21%
2,COc1cccc2sc(NN)nc12,0.731%
3,Nc1c(S(=O)(=O)c2cccs2)c2nc3ccccc3nc2n1CC1CCCO1 (stereo not drawn),-1.64%
4,O=C(Cc1ccccc1)Nc1nnc(-c2cccs2)s1,2.47%
5,Clc1ccccc1Cc1noc(CN2CCSCC2)n1,10.7%
6,COCCCNC(=S)N1CCN(Cc2ccc3c(c2)OCO3)CC1,7.53%
7,COc1ccc(N2CCN(C(=O)COc3ccc(S(=O)(=O)N4CCOCC4)cc3C)CC2)cc1,7.16%
8,c1ccc(Nc2nnc(-c3cccnc3)s2)cc1,12.7%
9,Cc1ccc(CSC2=NCCN2S(=O)(=O)c2ccccc2)cc1,11.3%
10,O=C(Cn1cnc2c(cnn2-c2ccccc2)c1=O)N1CCN(c2ccc(F)cc2)CC1,-11%
11,Cc1ccc(CCNC(=O)CCCn2nc(C)c3c(C)n(-c4ccc(C)cc4)nc3c2=O)cc1,2.7%
12,Cc1ccc(C(=O)Cn2c(C)cc(C)c(C#N)c2=O)cc1,12.1%
13,Cc1cc(=O)oc(C)c1C(=O)NCCC(C)C,-4.19%
14,O=C(Nc1nc(=O)[nH]s1)c1ccccc1,10.6%
15,NNc1nc2ccc(F)cc2s1,-5.57%
16,CN(C)c1nc(N)c2ncc(=S)[nH]c2n1,6.98%
17,CC(=O)c1ccc(NC(=O)C(C)Sc2nnc3ccccn23)cc1 (stereo not drawn),-1.85%
18,Cn1c(CSc2nc3ccccc3s2)nnc1SCC(=O)NCCN1CCOCC1,9.96%
19,O=C(COC(=O)C1CCN(S(=O)(=O)c2cccc3cccnc23)CC1)c1ccccc1,9.49%
20,Cc1ccccc1C(OCC(O)CN1CCCCC1CCO)c1ccccc1 (stereo not drawn),-25.3%
21,Brc1cccc(CNn2cnnc2)c1,18.6%
22,CCCn1nc(C(=O)NC2CC2)c2ccccc2c1=O,1.3%
23,CC(NC(=O)C12CC3CC(CC(C3)C1)C2)c1ccc2c(c1)OCCO2 (stereo not drawn),12.1%

row,Structure (SMILES),"hERG current change (%, negative = inhibition) at 1uM"
1,CC(C)(C)OC(=O)N1CCC(C(=O)N2CCOCC2)CC1,13.7%
2,COc1ccc(Nc2ccc(S(=O)(=O)N3CCCCC3)cc2[N+](=O)[O-])cc1Cl,1.66%
3,Cc1cccc2nc(CSc3ncccc3C(=O)O)cn12,8.73%
4,Cc1ccc(-n2nnnc2SC(C)C(N)=O)c(C)c1 (stereo not drawn),9.97%
5,CCn1cc(C(=O)NC(C)CCc2ccccc2)c(=O)c2cc(S(=O)(=O)N(C)C)ccc21 (stereo not drawn),5.29%
6,N#C/C(=C\c1ccc([N+](=O)[O-])cc1)C(=O)Nc1ccccc1O,-0.468%
7,Cc1sc(NC(=O)c2cccs2)c(C(=O)OC(C)C)c1C,14.5%
8,COc1ccccc1-c1noc(CCC(=O)Nc2ccccc2Cl)n1,11.8%
9,Cl.Nc1nc(C2C(=O)CCCC2=O)cs1,7.78%
10,Cc1ccc(C(=O)N/C(=C/c2ccc(-c3ccc(Br)cc3)o2)C(=O)NC2CCS(=O)(=O)C2)cc1 (stereo not drawn),3.65%
11,CCn1c(NC(=O)c2nn(C)cc2Br)nc2ccccc21,-0.186%
12,Cc1nc2ccccc2c(=O)n1NC(=O)c1ccccc1F,6.71%
13,Cc1ccccc1C(=O)NCC(=O)Nc1ccc(C)c(S(=O)(=O)N2CCCCCC2)c1,10.5%
14,CNC(=O)c1cc2cc(Cl)cc(OC)c2oc1=O,8.18%
15,COc1ccc(NC(=O)NCCCN2CCCCC2C)cc1 (stereo not drawn),0.473%
16,CC(C)(CO)NC(=O)c1ccc2c(c1)C(=O)c1ccccc1-2,-0.329%
17,CC(C)[C@H]1C=C(C(=O)O)O[C@@H](OCc2ccc(CO)cc2)C1,9.72%
18,O=C(NC(=S)Nc1ccc2oc(=O)ccc2c1)c1ccco1,14.7%
19,Cc1ccc(-c2nc(CSCC(=O)N3CCN(c4ccccn4)CC3)c(C)o2)cc1,1.44%
20,COC(=O)c1ccc(COc2ccc(-c3nnn(CC(=O)NC(C)(C)C)n3)cc2)cc1,6.04%
21,O=C(Nc1ccc(Oc2ccccc2)cc1)C1CCN(c2ncccn2)CC1,4.45%
22,Cc1ccc(-c2oc3ccccc3c(=O)c2OCC(=O)O)cc1,12%

# — publication PMC4336329 (PLoS ONE, 2015)
